The text below walks through data of PMC6919601, “Identification of Plasmodium dipeptidyl aminopeptidase allosteric inhibitors by high throughput screening” (PLoS ONE, 2019).

Among all 110,000 compounds or so, about 230 (0.21%) showed an effect of 50% or more. Some of the results follow.
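Also: 30 min substrate incubation versus DMSO and 10 µM JCP410 controls.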

Chain of DPAP1 (Q8IIJ9 whole entry, looked up): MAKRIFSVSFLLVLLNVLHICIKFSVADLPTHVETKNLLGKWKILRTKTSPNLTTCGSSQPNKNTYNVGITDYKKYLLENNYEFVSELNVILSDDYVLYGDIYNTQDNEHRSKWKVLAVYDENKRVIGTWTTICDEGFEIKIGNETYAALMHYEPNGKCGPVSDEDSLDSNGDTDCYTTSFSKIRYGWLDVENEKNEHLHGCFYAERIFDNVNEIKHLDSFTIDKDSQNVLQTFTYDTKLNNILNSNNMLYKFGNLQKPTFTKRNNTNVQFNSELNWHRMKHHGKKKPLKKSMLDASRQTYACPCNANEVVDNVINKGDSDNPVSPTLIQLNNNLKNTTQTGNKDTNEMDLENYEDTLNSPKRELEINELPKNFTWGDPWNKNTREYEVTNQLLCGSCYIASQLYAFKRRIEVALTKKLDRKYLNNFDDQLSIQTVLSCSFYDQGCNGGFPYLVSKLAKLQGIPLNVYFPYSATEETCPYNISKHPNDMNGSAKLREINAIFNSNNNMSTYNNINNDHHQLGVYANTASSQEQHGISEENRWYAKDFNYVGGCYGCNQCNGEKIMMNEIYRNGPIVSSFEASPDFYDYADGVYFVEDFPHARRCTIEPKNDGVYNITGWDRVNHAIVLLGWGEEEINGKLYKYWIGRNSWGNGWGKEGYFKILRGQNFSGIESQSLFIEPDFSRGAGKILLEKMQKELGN

The assay concerns the target DPAP1 (Plasmodium falciparum, UniProt Q8IIJ9). In words: primary screen, percent inhibition; read by cleavage of a fluorogenic dipeptide substrate; higher = more effect of the substance. More on the design: species or system P. falciparum D10 trophozoite lysates; single well.
Consider `COCCCn1c(SCC(=O)Nc2ccc(Cl)cc2)nc2sc3c(c2c1=O)CCC3`, for which the “% Inhibition @ 10 uM” value is 3.46%.
The value for `Cc1ccccc1OCC(O)Cn1c(SC(C)C(=O)O)nc2c1c(=O)[nH]c(=O)n2C` (stereo not shown) was 8.26%; that for `Cc1cccc(NC(=O)C(c2ccccc2)c2ccccc2)n1` was 4.22%; that for `CC(C)CCCN1C(=O)NC(=O)/C(=C\c2ccccc2Cl)C1=O` was 0.98%.
For `CCn1c2ccccc2c2cc(CN3CCN(C/C=C/c4ccccc4)CC3)ccc21` the value was 3.9%; for `Cc1ccc(CNC(=O)CCn2ccc3cc(S(=O)(=O)N4CCC(C)CC4)ccc32)cc1`, 0.181%; for `COc1ccc(CCNC(=O)c2sc3nc4n(c(=O)c3c2C)CCCCC4)cc1OC`, 2.34%.
The value for `CC1=C(C(=O)N2CCCCC2)C(c2cccc(O)c2)C2=C(O)CC(C)(C)CC2=N1` (stereo not shown) was 0.219%.
As to `O=C(CN1CCOCC1)Nc1ccc(Br)cc1C(=O)c1ccccc1`, the “% Inhibition @ 10 uM” value is on record as 3.44%.
The value for `CCCCC(=O)Nc1ccc2c(c1)OCCO2` was -4.65%; that for `OC(CN1CCN(C/C=C/c2ccccc2)CC1)Cn1c2ccc(Cl)cc2c2cc(Cl)ccc21` (stereo not shown) was 6.96%.
Turning to `CC1CN(C(=O)c2ccncc2)C(C)CN1C(=O)c1ccncc1` (stereo not shown), the “% Inhibition @ 10 uM” value is listed as -1.1%.
`COc1ccc(NC(=O)CN(c2ccc(Cl)c(Cl)c2)S(=O)(=O)c2ccccc2)cc1OC`: the “% Inhibition @ 10 uM” value was 1.62%.
For `CCN(CC)c1ccc(NC(=O)C23CC4CC(C2)CC(n2cnc(Br)n2)(C4)C3)cc1` the value was 19.7%; for `O=C(c1cccc(F)c1)N1CCN(CCO)CC1`, 6.82%.
The value for `O=C(NCCN1CCC(Cc2ccccc2)CC1)C1CCCN(S(=O)(=O)c2c[nH]cn2)C1` (stereo not shown) was 4.54%; that for `CC1=NC(C(F)(F)F)(C(F)(F)F)N=C(N(C)C)O1` was -7.35%; that for `O=c1oc2ccc3ccccc3c2cc1-c1nc(-c2ccncc2)no1` was 2.99%.
Regarding `O=C(NC(Cc1ccccc1)c1nc2ccccc2[nH]1)c1ccccc1` (stereo not shown), the “% Inhibition @ 10 uM” value is reported as -4.23%.
For `COCc1cc(C)nc2sc(C(=O)Nc3nccs3)c(N)c12` the value was -1.92%; for `N=C(NOC(=O)c1ccc(Br)o1)c1ccncc1`, 0.565%; for `O=c1c(Br)cccc(Br)c1O`, -3.06%.
The value for `Cc1c(C(=O)N2CCC(C(=O)N3CCCCC3)CC2)oc2cc3sc(N(C)C)nc3cc12` was -10.5%.
The value for `Cc1ccc(C)c(Cn2c(C(=O)O)c(CNCc3ccc(Cl)cc3)c3ccccc32)c1` was -1.44%.
Regarding `Cc1cc(C)c2c3c(sc2n1)C(c1ccc(F)cc1)C(C#N)=C(N)O3` (stereo not shown), the “% Inhibition @ 10 uM” value is on record as -0.305%.
Take `CCOc1cc(C2C(C#N)=C(N)Oc3[nH]nc(COC)c32)ccc1O` (stereo not shown): the “% Inhibition @ 10 uM” value is 2.8%.
As for `O=C1CCCC2=C1C(c1ccc(Cl)cc1)Nc1ccc3ncccc3c12` (stereo not shown), the “% Inhibition @ 10 uM” value was found to be 4.63%.
The value for `CCOc1ccccc1NC(=O)CN(c1cccc(Cl)c1C)S(C)(=O)=O` was -5.92%; that for `O=C1S/C(=C\c2cc3c(cc2Cl)OCO3)C(=O)N1Cc1ccc(F)cc1` was 1.81%; that for `CCn1c(C)nc2c(CN(C)C)c(O)ccc21` was -8.8%.
Take `C=CCNC(=O)CCCc1nnc2n(C)c(=O)c3sccc3n12`: the “% Inhibition @ 10 uM” value stood at 2.45%.
For `O=C(CCCC(=O)Nc1cccc(Cl)c1)Nc1cccc(Cl)c1` the value was 2.68%.
The value for `CC1CCCN(c2nc3c(-c4cccc(Br)c4)nnn3c3ccccc23)C1` (stereo not shown) was -1.21%; that for `Cc1ccc(S(=O)(=O)N2CCN(c3cccc(C)c3)CC2)cc1` was 1.34%; that for `CC[n+]1cn(CC(O)COc2ccc(C(C)=O)cc2)c2cc(C)c(C)cc21` (stereo not shown) was -3.41%.
Consider `CC(C)C1Nc2ccc(S(N)(=O)=O)cc2C2C=CCC21` (stereo not shown), for which the “% Inhibition @ 10 uM” value amounted to 2.05%.
On to `O=C(c1ccccc1Cl)N(Cc1cccc(Cl)c1)Cc1ccco1`, for which the “% Inhibition @ 10 uM” value was -0.45%.
The value for `CSc1ccc(-c2nc(CSCC(=O)N3CCN(Cc4ccccc4)CC3)c(C)o2)cc1` was 2.37%; that for `C=CCOc1c(Br)cc(/C=C2/C=C(c3ccc(OC)cc3)OC2=O)cc1OC` was 1.52%; that for `O=C(O)/C=C/c1ccc2ccccc2n1` was -3.98%.
For `Clc1ccc(-c2nnc(SCc3ccc(Br)cc3)o2)c(Cl)c1` the value was 4.03%.
The value for `O=C(Nc1ccccn1)c1cnn(-c2ccc(Cl)cc2)c1C1CCNCC1` was -6.14%; that for `Cc1ccc2nsnc2c1S(=O)(=O)NCCc1c(C)[nH]c2ccc(F)cc12` was 2.1%.
Regarding `CCN(CC)c1ccc(C2C3=C(O)CC(C)(C)CC3=NC(C)=C2C(=O)Nc2cccc(C)n2)cc1` (stereo not shown), the “% Inhibition @ 10 uM” value was -2.53%.
The value for `Cc1cc(NC(=O)c2ccc(F)cc2)n(-c2nc3ccccc3[nH]2)n1` was -9.11%; that for `O=CN1CCN(Cc2cccc(Br)c2)CC1` was -9.93%.
As to `NC(=O)c1cc(S(=O)(=O)N2CCOCC2)cs1`, the “% Inhibition @ 10 uM” value is listed as -4.95%.
For `CCOc1ccc(/C=C2/SC(Nc3cccc(C(=O)O)c3)=NC2=O)cc1OC`, the “% Inhibition @ 10 uM” value is on record as -3.09%.
On to `Cc1ccc(C(=O)Nc2cccc(O)c2)cc1S(=O)(=O)N1CCOCC1`, for which the “% Inhibition @ 10 uM” value came out at 4.8%.
